The record followed here is article PMC3709100.

Sequences of proteins named here, by UniProt entry; tags and fusion partners are left off.
UniProt P06700: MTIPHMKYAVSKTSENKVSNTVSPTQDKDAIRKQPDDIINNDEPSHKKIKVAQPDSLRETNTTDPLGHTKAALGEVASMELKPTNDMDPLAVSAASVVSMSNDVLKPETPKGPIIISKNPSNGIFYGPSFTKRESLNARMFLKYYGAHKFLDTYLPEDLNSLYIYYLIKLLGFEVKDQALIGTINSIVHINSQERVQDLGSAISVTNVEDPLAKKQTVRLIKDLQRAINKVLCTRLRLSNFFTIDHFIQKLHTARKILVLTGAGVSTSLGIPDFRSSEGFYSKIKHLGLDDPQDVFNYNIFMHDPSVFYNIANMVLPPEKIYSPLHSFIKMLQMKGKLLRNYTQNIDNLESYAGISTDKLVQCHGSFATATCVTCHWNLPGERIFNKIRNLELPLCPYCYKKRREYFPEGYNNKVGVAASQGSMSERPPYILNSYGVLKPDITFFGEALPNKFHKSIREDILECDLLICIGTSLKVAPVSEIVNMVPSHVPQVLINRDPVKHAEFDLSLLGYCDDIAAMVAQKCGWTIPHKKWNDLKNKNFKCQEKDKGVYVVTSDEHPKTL

Results are given in words; binding and its absence hold for the method and conditions named. Binding seen in cells or lysates may run through a third protein. Some entries that bind do so weakly or less than the wild type. For part of these data: Where a sequence is shown, tags or fusion partners need not be part of it.

The target in one assay is GST-Sir2 (S. cerevisiae) (UniProt P06700). As to the kind of experiment: pull-down; GST or GST-Sir2 from E. coli immobilised on glutathione sepharose beads, incubated overnight at 4°C with 1 ml yeast lysate (5 μg/μl total protein) of cells expressing Myc-tagged Fkh1, Fkh2 or Hcm1; GST-binding buffer (20 mM TrisHCl pH 7.9, 125 mM NaCl, 5 mM MgCl2, 0.5 mM DTT); α-Myc blot; only the target purified.

Assay [1] addresses Sir2-VC (S. cerevisiae) (UniProt P06700). As to the kind of experiment: condition: only from after 20 min until 70 min after release from α-factor arrest (late S to late M phase); split reporter; Venus BiFC time course after release from α-factor arrest, samples every 10 min; the time points after 20 min until late M phase (70 min).
The target is the same in assay [2]. As to the kind of experiment: split reporter; Venus BiFC in haploid yeast cells: chromosomal VC fusion and VN fusion from a p426GPD plasmid; fluorescence microscopy; cells in mid-logarithmic/exponential phase, also G1 after α-factor arrest, stationary phase (OD600 ~1.6), 2 mM H2O2 or 40 μM MD.
The target of assay [3] is T1, Ndd1-VC (S. cerevisiae) (UniProt Q08887).
T1 sequence: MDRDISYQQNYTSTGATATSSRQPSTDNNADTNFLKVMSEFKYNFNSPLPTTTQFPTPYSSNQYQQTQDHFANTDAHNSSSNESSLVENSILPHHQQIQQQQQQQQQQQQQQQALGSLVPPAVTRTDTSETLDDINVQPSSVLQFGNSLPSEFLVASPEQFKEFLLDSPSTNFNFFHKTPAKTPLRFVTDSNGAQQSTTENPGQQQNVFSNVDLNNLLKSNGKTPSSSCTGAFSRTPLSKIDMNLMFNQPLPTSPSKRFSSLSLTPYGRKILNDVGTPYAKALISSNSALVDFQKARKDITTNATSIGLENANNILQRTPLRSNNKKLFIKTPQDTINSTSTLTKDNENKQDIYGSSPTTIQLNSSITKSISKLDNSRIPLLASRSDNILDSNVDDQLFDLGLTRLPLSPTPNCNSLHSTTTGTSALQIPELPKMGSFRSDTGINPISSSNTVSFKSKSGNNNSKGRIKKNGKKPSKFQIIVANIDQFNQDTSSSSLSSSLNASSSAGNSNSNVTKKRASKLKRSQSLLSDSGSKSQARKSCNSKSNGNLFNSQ
The experiment in a line: condition: only cells in stationary phase (OD600 ~1.6); split reporter; Venus BiFC in haploid yeast cells grown to stationary phase (OD600 ~1.6).

Assay [4] addresses T1, Ndd1-VC (S. cerevisiae). The experiment in a line: split reporter; Venus BiFC in haploid yeast cells: chromosomal VC fusion and VN fusion from a p426GPD plasmid; fluorescence microscopy; cells in mid-logarithmic/exponential phase, also G1 after α-factor arrest, stationary phase (OD600 ~1.6), 2 mM H2O2 or 40 μM MD.

B1: Fkh1-Myc (protein, UniProt P40466 1-484)
chain: MSVTSREQKFSGKYSSYTAQDRQGLVNAVTCVLSSSSDPVAVSSDYSNSLSIAREVNAYAKIAGCDWTYYVQKLEVTIGRNTDSLNLNAVPGTVVKKNIDIDLGPAKIVSRKHAAIRFNLESGSWELQIFGRNGAKVNFRRIPTGPDSPPTVLQSGCIIDIGGVQMIFILPEQETIISDYCLNHLMPKLLSTYGTNGNNNPLLRNIIEGSTYLREQRLQEEARLQQLDHLHTPLSSSSDVNPIGDPHGDTIMMEEDEEDENYTRGGIRPNTYTSSSNNAVTNGNVPHIENPSDLSLDENRYIKPPQSYASMITQAILSTPEGSISLADIYKFISDNYAFYRFSQMAWQNSVRHNLSLNKAFEKVPKRAGQQGKGMNWKISDEVRRDFLNKWNAGKLSKIRRGASVTRQLQLHMSKFGEIPAPESSSIDPRGIKAQKVKKSLQATSSILGESAPQLQRTQLTGQISTTTSMDVTTNANVNNSSLS
As for B1, in the assay with GST-Sir2 (S. cerevisiae), the binding entry is listed as “binds”.

B2: VN-Fkh1 (protein, UniProt P40466 1-484)
chain: B1 chain
Turning to B2, the values for the binding entry with Sir2-VC (S. cerevisiae) [1] and with Sir2-VC (S. cerevisiae) [2] were “no binding” and “binds”, respectively.

B3: Hcm1-Myc (protein, UniProt P25364 1-564)
chain: MMNEDISIIDGHNSFLTEKSTVLLTQAKRTLEDEKEMITPPSSTVRKTMKEVNKRPSHPLSPDHSSPIAPSKAKRQRSDTCARSNGNLTLEEILQSLERRRINGELAKKPPYSYATLICLAILQSQEGKLTLSQIYHWIHVHFPYYKQKDASWQNSIRHNLSLNDAFIKTEKSCDGKGHFWEVRPGAETKFFKGENRGYEFVKDSLQDIGKYFEIDSTLDELEQVESGEGNDDLPDEEEREEAGKFPSIEIQLNSSPILRVSQLHHIPQLKTDNSVLNPHENLESMRNMIENDVNNIDSLEPPYVMKKYHTSLGLPSLVNAKDHFQAGVKNNNITQANRFNTLPITSAKSPQNFRKYFTSFNSNFEDLSPLRSNVGAGSLLDPLPYSPLKLYDQKNLALMSKPQSQQSYSNSQLPPPPSSHGSDLLKTPKMRHSDGLEKTPSRLISTPKDGNSILRKWQTPSHLFEDLYCSPLFRAIETPIRYITTPGGTLETQISPRKSSAPDVLTSATNSKFASSGLFGVDVYSVWKRATEKISDGNNTTDSNQKHHPYHNHPSNDSGNEKN
On to B3, for which, in the assay with GST-Sir2 (S. cerevisiae), the binding result is “binds”.

B4: VN-Hcm1 (protein, UniProt P25364 1-564)
chain: B3 chain
As to B4, the binding entry in the assay with Sir2-VC (S. cerevisiae) [2] is recorded as “binds”.

B5: Fkh2-Myc (protein, UniProt P41813 1-862)
chain: MSSSNFNEMNELNMTQTNYGSTKYTAQHHQGVINAIISSLTAPDQPTTVSLQYSNDKNMATEIQAYAKLSGPNWTYYVKDLEVSIGRNTDPLNSALQENSDGVKNSYRVNIDLGPAKVVSRKHAIIKYNMNIGGWELHILGRNGAKVNFQRTHNGPNNPPIRLSSGTLLDIGGTQMMFILPDSDPVVAPICIEHLMPNLINMFGLEGNNNPLLRDIIKQSNYAKQRQLTSNQQIKGFKLYGSGGNAPFGSGANLGPSEQGIFNNNNNSKNKNGYFTSINPNYTASTTTSNTINPQAASPQGPPNTIIAANFVDSYKSSNAYPQALDFTSDLSHDENRNVKPPHSYATMITQAILSSPEGVISLADIYKYISSNYAYYRFAKSGWQNSIRHNLSLNKAFEKVPRRPNEPGKGMKWRISESYQQEFLNKWNTGKVGKIRRGSSVARQLQLHMAKFNSLPMEMDYRLSLNMAQPPKRQLQSHNVLEPSNNNIIEGFVQHVPSKGNLPASQQSQPPVSHQNQSQQPPPQEQRQEIQFTFADTQNRNIALARPIKTPQLQAPNSNANLNQNNMKEYKESLHPPAISISQMNRQSPNNALVSFTNACANSKIINNISDSADKSTNNNGGTKMNLPAISTSSLDENGNLEPTTTTSSGNSNSVPQTGTTTSSLAANSLRLSQPYDTLLRSPTKAFHITAMEAYTPERGSANRARSPLHSNSNNTNNNGANNSNLQTSGMENKQTGLVLDSNVLKSMESNNDNRRLTPSTSKSQNVKSSPGVWNLLQFSSTNNTPAADSGGNKRGFSINPDIKAKENENATSEKDSDSNSNDLETKDINSSPLKNQGGSTANAKELILDTDGAKISIINN
As for B5, the binding result with GST-Sir2 (S. cerevisiae) was “binds”.

B6: VN-Fkh2 (protein, UniProt P41813 1-862)
chain: B5 chain
For B6, the binding entry with Ndd1-VC (S. cerevisiae) [3] was “no binding”; with Sir2-VC (S. cerevisiae) [2] it was “binds”; in the assay with Ndd1-VC (S. cerevisiae) [4], “binds”.
